Source: PubChem BioAssay AID1240 (Sanford-Burnham Center for Chemical Genomics, 2008)
The whole screen tested about 50,000 compounds, of which about 800 (1.6%) showed an effect of 50% or more. The list shows a part of the results.

Target: Bcl-2-like protein 10 (Homo sapiens) (UniProt Q9HD36)
Assay: TR3 peptide-Bcl-B binding displacers, biochemical primary FP assay, phenotype converters (AID 1240);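 note: 0% = Bcl-B with tracer peptide and DMSO and 100% = tracer peptide lacking Bcl-B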
Conditions: GST-Bcl-B / FITC-TR3 peptide fluorescence polarization; stronger effect = higher value; compound at 3.75 mg/L

UniProt Q9HD36, sequence (Q9HD36 whole entry, looked up): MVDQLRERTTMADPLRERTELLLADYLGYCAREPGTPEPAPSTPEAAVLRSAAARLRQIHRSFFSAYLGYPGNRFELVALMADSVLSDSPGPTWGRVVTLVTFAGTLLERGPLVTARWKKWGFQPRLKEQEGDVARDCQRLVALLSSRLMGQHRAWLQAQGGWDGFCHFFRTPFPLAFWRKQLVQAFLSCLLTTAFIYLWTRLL

| SMILES | displacement [%] |
| --- | --- |
| COc1ccc(OC)c(/C=C/C(=O)Nc2ccc(N(C)C)cc2)c1 | 8 |
| O=C(COc1cccc2ccccc12)Nn1cnnc1 | -6.7 |
| CCOC(=O)c1ccccc1NC(=O)CC1Sc2ccc(C(F)(F)F)cc2NC1=O (stereo not given) | 9.3 |
| O=C(Nc1cccc2ccccc12)c1ccc(CN2CCOCC2)cc1 | -0.6 |
| O=C(Nc1ccc(Cl)cc1)c1nn2c(c1Cl)NC(c1ccc(Cl)cc1)CC2C(F)(F)F (stereo not given) | 11 |
| Cc1ccc(N2C(=O)/C(=C/c3cccc4ccccc34)SC2=S)cc1 | 9.4 |
| O=C(Nc1ccc2c(c1)OCO2)c1ccc2c(c1)C(=O)N(CC1CCCO1)C2=O (stereo not given) | 7.5 |
| Cc1cc(Cl)ccc1OCC(=O)NCc1ccccn1 | -4.5 |
| Cc1ccc(-c2nnc(NC(=O)Nc3ccc(Cl)c(Cl)c3)s2)cc1 | 2.4 |
| O=C(NCCOc1ccccc1F)c1ccc(F)c2ccccc12 | 11.2 |
| NNC(=O)/C(=C\c1ccc(Br)cc1)NC(=O)c1cccs1 | -7.7 |
| c1ccc2c(c1)[nH]c1nc3nnnn3nc12 | -73.7 |
| Cc1ccc(C(=O)O)cc1NC(=O)CCC(=O)O | -1.2 |
| Cc1ccc(C)c(NC2=C(Cl)C(=O)N(c3cccc(Cl)c3)C2=O)c1 | 7 |
| COc1ccc(C(=O)Nc2ccc(N3CCOCC3)cc2)cc1 | -1 |
| COc1ccc(-c2nc(-c3cc4cc([N+](=O)[O-])c(O)cc4oc3=O)cs2)cc1 | -16.7 |
| O=C1CS/C(=N\N=C\c2cn(Cc3ccc(Cl)cc3Cl)c3ccccc23)N1 | 30 |
| COc1ccc(C(=O)NC(=S)N2CCCCCC2)cc1 | 14 |
| c1ccc(CC2=NNC(Cc3ccccc3)=NN2)cc1 | 2.8 |
| Cc1ccc(-c2ccc(OCC(=O)NCc3ccccc3)cc2)cc1 | 5 |
| CC(=O)N(c1ccccc1C)S(=O)(=O)c1ccc(Cl)cc1 | 18.6 |
| COC(=O)C(CCCC(C(=O)OC)C(=O)OC)C(=O)OC | 8.3 |
| Cc1ccc(C)c(OCC(O)CN2CCCC(C)C2)c1 (stereo not given) | -6.7 |
| CCc1ccccc1NC1=C(Cl)C(=O)N(c2ccc(C)cc2C)C1=O | 16.8 |

| SMILES | displacement [%] |
| --- | --- |
| C(=N\Nc1ccccc1)/c1ccc(N2CCOCC2)cc1 | 4.6 |
| COc1ccc(N2C(=O)/C(=C/c3cc4c(cc3Br)OCO4)SC2=S)cc1 | -5.1 |
| COc1ccc(OC)c(/C=N/Nc2nc3cc(C)ccc3cc2C)c1 | -5.4 |
| COc1cc(/C=C2\NC(=S)NC2=O)c([N+](=O)[O-])cc1OC | 17.8 |
| Cc1cc(-c2ccccc2)n(C(N)=S)n1 | -6.3 |
| O=C(NCc1ccccc1)c1cc2ncc(Br)cn2n1 | -6.1 |
| CCC(Sc1nc(C)cc(C)n1)C(=O)Nc1ccc([N+](=O)[O-])cc1 (stereo not given) | -15.6 |
| Cc1ccc(C)c(NCN2C(=O)S/C(=C/c3cccc(Br)c3)C2=O)c1 | 15 |
| COCCNC(=O)c1cc2n(n1)C(C(F)(F)F)CC(c1ccc(Br)cc1)N2 (stereo not given) | 2.4 |
| CCCC(=O)Nc1ccc(N2CCOCC2)c(Cl)c1 | 4.5 |
| C=CCN1C(=O)/C(=C\c2ccc(OCc3ccc(COc4ccc(C=O)cc4OC)cc3)c(OC)c2)SC1=S | -8.4 |
| N#C/C(=C\c1c[nH]c2ccccc12)c1nn(CCO)c(N)c1C#N | -3.5 |
| O=C(CN(c1ccc(F)cc1)S(=O)(=O)c1ccccc1)Nc1cccc2ccccc12 | -4.4 |
| Cc1ccc(Nc2cc(C)c3ccccc3n2)c(C)c1 | 9.4 |
| NC(=O)C1(N2CCCCC2)CCN(C(=S)Nc2ccc(Cl)cc2)CC1 | -15.7 |
| CCc1ccccc1N(CC(=O)NC(C)c1ccccc1)S(C)(=O)=O (stereo not given) | -3.1 |
| Cc1[nH]c2ccccc2c1/C=C/c1nc2ccccc2c(=O)n1-c1ccc([N+](=O)[O-])cc1 | -1.5 |
| COc1cccc2cc(-c3nc(-c4cccc(Br)c4)cs3)c(=O)oc12 | 8.2 |
| COc1ccc(CCNC(=O)COc2ccccc2OC)cc1 | 4.3 |
| Cc1ccc(C2C3C(=O)N(c4cccc(Br)c4)C(=O)C3N3CCCN23)cc1 (stereo not given) | -7.4 |
| O=C(O)CCCCCN1C(=O)C(=O)/C(=C(/O)c2ccc(F)cc2)C1c1cccc(F)c1 (stereo not given) | 0 |
| COc1c(Cl)cc(C(=O)Nc2c(C)cccc2C)cc1Cl | 6.7 |
| Cc1ccc(OCC(=O)N2CCOCC2)c(Br)c1 | 3.3 |
| COc1ccccc1C1C(C(=O)Nc2ccccc2)=C(C)NC(C)=C1C(=O)Nc1ccccc1 | 11.7 |

| SMILES | displacement [%] |
| --- | --- |
| CCN(CC)C(=O)c1sc(NC(=O)c2cc(OC)cc(OC)c2)c(C(=O)OC)c1C | -7 |
| Cc1ccc2[nH]c(=O)c(C(=O)/C=C\c3ccc(Br)cc3)c(-c3ccccc3)c2c1 | -2.7 |
| O=C(N/N=C/c1ccc(O)c(I)c1)c1ccncc1 | 0.3 |
| CCOc1cc(Br)cc(/C=C2/SC(=S)NC2=O)c1O | -10.5 |
| COc1cc(/C=c2/sc3nc4ccccc4n3c2=O)ccc1OCc1nn[nH]n1 | 5.2 |
| C=CCOc1ccc(/C=C2\SC(=S)N(c3ccc([N+](=O)[O-])cc3)C2=O)cc1OC | 8 |
| Cc1ccc(C2(C)N(O)C(C)C(c3ccccc3)=[N+]2[O-])cc1 (stereo not given) | 8.5 |
| C=CCN1C(=O)/C(=C/c2ccccc2OCc2ccccc2Cl)SC1=S | 11.6 |
| O=C(Cc1ccccc1)NNC(=O)c1cccs1 | -4 |
| CCOc1ccc(NC(=S)NC(NC(=O)N(C)C)C(Cl)(Cl)Cl)cc1 (stereo not given) | -15.3 |
| COc1ccc(OC)c(N(CC(=O)Nc2ccccc2Cl)S(C)(=O)=O)c1 | -0.4 |
| Cc1ccccc1C1(c2ccccc2C)CC1C(=O)Nc1cccc(Cl)c1 (stereo not given) | -0.6 |
| COC(=O)CN(c1ccccc1OC)S(=O)(=O)c1ccccc1 | 9.4 |
| O=C(Nc1ccc2c(c1)OCCO2)C(c1ccccc1)c1ccccc1 | 9.2 |
| COc1ccc2c(c1)c(/C=C/c1nc3ccccc3c(=O)n1-c1cccc([N+](=O)[O-])c1)c(C)n2C | -5.1 |
| Cc1cc(/C=C2/NC(=S)NC2=O)c(C)n1-c1cccc(Cl)c1 | -12.9 |
| Fc1ccc(C=NN2CCN(Cc3ccccc3)CC2)cc1 | 5.3 |
| CC(C)c1ccccc1NS(=O)(=O)c1ccccc1 | -4.2 |
| CCC(=O)N1CCN(c2nc3ccc([N+](=O)[O-])cc3s2)CC1 | -8.8 |
| O=C1c2ccccc2-c2onc3ccc(NC4CCCCC4)c1c23 | 59.4 |
| O=C(NCCCn1ccnc1)c1ccc(Br)o1 | -6.5 |
| COc1ccccc1N1CCN(C(=O)c2ccccc2I)CC1 | 6.5 |
